Experimental data from paper PMC9911399, “Two distinct binding modes provide the RNA-binding protein RbFox with extraordinary sequence specificity”.
Numbering of substitutions follows the chain as printed; changes in the protein carry UniProt numbers. The list shows a part of the results.

T1: RBFOX1 RRM (Homo sapiens, UniProt Q9NWB1 109-208)
T1 sequence: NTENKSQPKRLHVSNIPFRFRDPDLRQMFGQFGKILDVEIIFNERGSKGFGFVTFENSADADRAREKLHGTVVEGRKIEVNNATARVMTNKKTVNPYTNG

B1: GAUACCA (DNA:RNA)
RNA: GGGAGACCGGAAUUCAGAUUGUCCGAUACCAUUAAAUCCCGUCGUAGCCACCA
DNA 1: CAATCTGAATTCCGGTCTCCC
DNA 2: TGGTGGCTACGACGGGATT
B2: CUCCGGC (DNA:RNA)
RNA: GGGAGACCGGAAUUCAGAUUGUCCCUCCGGCUUAAAUCCCGUCGUAGCCACCA
DNA 1: CAATCTGAATTCCGGTCTCCC
DNA 2: TGGTGGCTACGACGGGATT
B3: CUAUUGG (DNA:RNA)
RNA: B2 RNA with C27A, C28U, G29U, C31G
DNA 1: CAATCTGAATTCCGGTCTCCC
DNA 2: TGGTGGCTACGACGGGATT
B4: ACGGGCA (DNA:RNA)
RNA: B1 RNA with G25A, A26C, U27G, A28G, C29G
DNA 1: CAATCTGAATTCCGGTCTCCC
DNA 2: TGGTGGCTACGACGGGATT
B5: AAAGGAG (DNA:RNA)
RNA: B2 RNA with C25A, U26A, C27A, C28G, G30A, C31G
DNA 1: CAATCTGAATTCCGGTCTCCC
DNA 2: TGGTGGCTACGACGGGATT
B6: CUAACAG (DNA:RNA)
RNA: B2 RNA with C27A, C28A, G29C, G30A, C31G
DNA 1: CAATCTGAATTCCGGTCTCCC
DNA 2: TGGTGGCTACGACGGGATT
B7: AUAAUGA (DNA:RNA)
RNA: B2 RNA with C25A, C27A, C28A, G29U, C31A
DNA 1: CAATCTGAATTCCGGTCTCCC
DNA 2: TGGTGGCTACGACGGGATT
B8: AGAUGUG (DNA:RNA)
RNA: B2 RNA with C25A, U26G, C27A, C28U, G30U, C31G
DNA 1: CAATCTGAATTCCGGTCTCCC
DNA 2: TGGTGGCTACGACGGGATT
B9: UCUUCAC (DNA:RNA)
RNA: B1 RNA with G25U, A26C, A28U, C30A, A31C
DNA 1: CAATCTGAATTCCGGTCTCCC
DNA 2: TGGTGGCTACGACGGGATT
B10: AACUGCA (DNA:RNA)
RNA: B1 RNA with G25A, U27C, A28U, C29G
DNA 1: CAATCTGAATTCCGGTCTCCC
DNA 2: TGGTGGCTACGACGGGATT
B11: GAACAUA (DNA:RNA)
RNA: B1 RNA with U27A, A28C, C29A, C30U
DNA 1: CAATCTGAATTCCGGTCTCCC
DNA 2: TGGTGGCTACGACGGGATT
B12: ACUAUGA (DNA:RNA)
RNA: B1 RNA with G25A, A26C, C29U, C30G
DNA 1: CAATCTGAATTCCGGTCTCCC
DNA 2: TGGTGGCTACGACGGGATT
B13: UUCAUUC (DNA:RNA)
RNA: B2 RNA with C25U, C28A, G29U, G30U
DNA 1: CAATCTGAATTCCGGTCTCCC
DNA 2: TGGTGGCTACGACGGGATT
B14: CUGGUUG (DNA:RNA)
RNA: B2 RNA with C27G, C28G, G29U, G30U, C31G
DNA 1: CAATCTGAATTCCGGTCTCCC
DNA 2: TGGTGGCTACGACGGGATT
B15: CUGCCUA (DNA:RNA)
RNA: B2 RNA with C27G, G29C, G30U, C31A
DNA 1: CAATCTGAATTCCGGTCTCCC
DNA 2: TGGTGGCTACGACGGGATT
B16: UUAUUCC (DNA:RNA)
RNA: B2 RNA with C25U, C27A, C28U, G29U, G30C
DNA 1: CAATCTGAATTCCGGTCTCCC
DNA 2: TGGTGGCTACGACGGGATT
B17: AGUCAAA (DNA:RNA)
RNA: B1 RNA with G25A, A26G, A28C, C29A, C30A
DNA 1: CAATCTGAATTCCGGTCTCCC
DNA 2: TGGTGGCTACGACGGGATT
B18: UGUAGUA (DNA:RNA)
RNA: B1 RNA with G25U, A26G, C29G, C30U
DNA 1: CAATCTGAATTCCGGTCTCCC
DNA 2: TGGTGGCTACGACGGGATT
B19: AGGUAAA (DNA:RNA)
RNA: B1 RNA with G25A, A26G, U27G, A28U, C29A, C30A
DNA 1: CAATCTGAATTCCGGTCTCCC
DNA 2: TGGTGGCTACGACGGGATT
B20: AGGUCGG (DNA:RNA)
RNA: B2 RNA with C25A, U26G, C27G, C28U, G29C, C31G
DNA 1: CAATCTGAATTCCGGTCTCCC
DNA 2: TGGTGGCTACGACGGGATT
B21: AGGGUUU (DNA:RNA)
RNA: GGGAGACCGGAAUUCAGAUUGUCCAGGGUUUUUAAAUCCCGUCGUAGCCACCA
DNA 1: CAATCTGAATTCCGGTCTCCC
DNA 2: TGGTGGCTACGACGGGATT
B22: AAAAUCG (DNA:RNA)
RNA: B1 RNA with G25A, U27A, C29U, A31G
DNA 1: CAATCTGAATTCCGGTCTCCC
DNA 2: TGGTGGCTACGACGGGATT
B23: GAACCGC (DNA:RNA)
RNA: B2 RNA with C25G, U26A, C27A, G29C
DNA 1: CAATCTGAATTCCGGTCTCCC
DNA 2: TGGTGGCTACGACGGGATT
B24: UCCGGAG (DNA:RNA)
RNA: B2 RNA with C25U, U26C, C28G, G30A, C31G
DNA 1: CAATCTGAATTCCGGTCTCCC
DNA 2: TGGTGGCTACGACGGGATT
B25: CAGCAUU (DNA:RNA)
RNA: B21 RNA with A25C, G26A, G28C, U29A
DNA 1: CAATCTGAATTCCGGTCTCCC
DNA 2: TGGTGGCTACGACGGGATT
B26: ACUUUUC (DNA:RNA)
RNA: B21 RNA with G26C, G27U, G28U, U31C
DNA 1: CAATCTGAATTCCGGTCTCCC
DNA 2: TGGTGGCTACGACGGGATT
B27: GAGUUGC (DNA:RNA)
RNA: B21 RNA with A25G, G26A, G28U, U30G, U31C
DNA 1: CAATCTGAATTCCGGTCTCCC
DNA 2: TGGTGGCTACGACGGGATT
B28: GGCCGUG (DNA:RNA)
RNA: B2 RNA with C25G, U26G, G30U, C31G
DNA 1: CAATCTGAATTCCGGTCTCCC
DNA 2: TGGTGGCTACGACGGGATT
B29: GAAACGA (DNA:RNA)
RNA: B1 RNA with U27A, C30G
DNA 1: CAATCTGAATTCCGGTCTCCC
DNA 2: TGGTGGCTACGACGGGATT
B30: UGUCAUC (DNA:RNA)
RNA: B21 RNA with A25U, G27U, G28C, U29A, U31C
DNA 1: CAATCTGAATTCCGGTCTCCC
DNA 2: TGGTGGCTACGACGGGATT
B31: GAGCGGG (DNA:RNA)
RNA: B2 RNA with C25G, U26A, C27G, C31G
DNA 1: CAATCTGAATTCCGGTCTCCC
DNA 2: TGGTGGCTACGACGGGATT

What follows are binders tested against T1, RBFOX1 RRM (assay: EMSA; HiTS-Eq, 1 nM pool, 10 min; buffer printed only for the single-RNA assays: 10 mM Tris pH 7.5, 150 mM NaCl, 3.4 mM EDTA, 0.001% NP-40, 30 C). Details: tags: His6 N-terminal (pET28a); label: 5' 32P.
Outline: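 A pool of RNA with 7 randomized nucleotides, 5′-radiolabelled and with DNA-annealed flanks, was equilibrated at 1 nM for 10 min in 50 µL with purified RbFox RRM, wild type or mutant, across increasing protein concentrations. Free RNA was separated by 8% native PAGE, excised, reverse-transcribed, barcoded by PCR and sequenced. Relative association constants were obtained from read-count changes of each RNA species versus the control reaction and normalised to the cognate motif.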
For B1, the binding signal was 0.0027 KA relative to UGCAUGU.
In the case of B2, the binding signal is reported as 0.00865 KA relative to UGCAUGU.
With B3 the binding signal was 0.0101 KA relative to UGCAUGU.
With B4 the binding signal was 0.007 KA relative to UGCAUGU.
B5 was tested, and the binding signal was 0.00703 KA relative to UGCAUGU.
For B6, the binding signal was 0.00709 KA relative to UGCAUGU.
B7 was tested, and the binding signal was 0.00664 KA relative to UGCAUGU.
B8 was tested, and the binding signal was 0.0146 KA relative to UGCAUGU.
In the case of B9, the binding signal is reported as 0.0046 KA relative to UGCAUGU.
For B10, the binding signal was 0.0126 KA relative to UGCAUGU.
B11 was tested, and the binding signal was 0.00334 KA relative to UGCAUGU.
For B12, the binding signal was 0.00624 KA relative to UGCAUGU.
B13 was tested, and the binding signal was 0.00952 KA relative to UGCAUGU.
In the case of B14, the binding signal is reported as 0.0304 KA relative to UGCAUGU.
With B15 the binding signal was 0.0113 KA relative to UGCAUGU.
For B16, the binding signal was 0.00377 KA relative to UGCAUGU.
In the case of B17, the binding signal is reported as 0.000317 KA relative to UGCAUGU.
In the case of B18, the binding signal is reported as 0.015 KA relative to UGCAUGU.
B19 was tested, and the binding signal was 0.00137 KA relative to UGCAUGU.
For B20, the binding signal was 0.0239 KA relative to UGCAUGU.
In the case of B21, the binding signal is reported as 0.0224 KA relative to UGCAUGU.
With B22 the binding signal was 0.00246 KA relative to UGCAUGU.
For B23, the binding signal was 0.00516 KA relative to UGCAUGU.
In the case of B24, the binding signal is reported as 0.00511 KA relative to UGCAUGU.
For B25, the binding signal was 0.00507 KA relative to UGCAUGU.
For B26, the binding signal was 0.00801 KA relative to UGCAUGU.
B27 was tested, and the binding signal was 0.018 KA relative to UGCAUGU.
For B28, the binding signal was 0.0101 KA relative to UGCAUGU.
For B29, the binding signal was 0.00773 KA relative to UGCAUGU.
In the case of B30, the binding signal is reported as 0.0135 KA relative to UGCAUGU.
For B31, the binding signal was 0.0168 KA relative to UGCAUGU.
